# Measured values reported in PubChem BioAssay AID624296 (National Center for Advancing Translational Sciences (NCATS), 2012).
# Screen size: about 350,000 compounds; about 9,900 (2.8%) were called active. Inconclusive results, whose numbers are uncertain, are shown with a selection of clear calls. The call rests on the fitted dose curve; in most records, active means well fitted activation curve with a large enough effect; inconclusive means small, poorly fitted or top-dose-only effect; inactive means no such curve, though single readings can be large or run the other way. Potencies of inconclusive entries are left out as doubtful fits.
# Assay: A quantitative high throughput screen for small molecules that induce DNA re-replication in MCF 10a normal breast cells. Further: nearly all actives have a fitted effect of over 50% in size. On activity, positive = re-replication: % of control where 0% means no effect.
# Settings: MCF 10A DNA re-replication, Hoechst nuclear intensity, 48 h; activity, positive = re-replication: at 46.1 µM (top of the series)
# Potency means the concentration at half of the fitted maximal effect; tags describe the fitted curve by direction and shape.
SMILES,Potency,"activity, positive = re-replication"
COc1ccc(C(=O)NC2CCN(CC(=O)NCc3ccccc3F)CC2)cc1,"inconclusive [activator, single point]",
NC(=O)c1cc2ccc(O)cc2oc1=Nc1ccccc1,"inconclusive [activator, single point]",
Cc1ccc(C(=O)N2CCN(c3cc4c(cc3[N+](=O)[O-])n(C)c(=O)n4C)CC2)cc1,,inactive: 13.3%
Cc1cs/c(=N\N=C\c2ccccc2)n1Cc1ccco1,"inconclusive [activator, full curve, poor fit]",
COC(=O)c1ccccc1NC(=O)c1cnn2c(C(F)F)cc(C3CC3)nc12,"inconclusive [activator, single point]",
CCOc1cc(C2NC(=O)CCC2[N+](=O)[O-])cc(Br)c1OCC (stereo unspecified),,inactive: -3.23%
O=C(NNS(=O)(=O)c1ccc(C(=O)NC2CCCC2)cc1)c1ccncc1,"inconclusive [activator, single point]",
N#C/C(=C\c1ccc([N+](=O)[O-])cc1)C(=O)NCCCn1ccnc1,"inconclusive [activator, full curve, poor fit]",
CCC1CCCCN1CCCNC(=O)c1ccc2c(=O)n(Cc3ccc(OC)cc3)c(=O)[nH]c2c1 (stereo unspecified),"inconclusive [activator, single point]",
CCn1c(SCC(=O)N2CCc3ccccc3C2)nc2c1c(=O)n(C)c(=O)n2C,,inactive: 3.07%
O=C(CN1C(=O)COc2ccccc21)N(Cc1ccccc1)Cc1ccccn1,,inactive: -3.39%
COCCN(CCOC)c1nc(-c2ccc(C)cc2)nc2ccccc12,"inconclusive [activator, single point]",
CNC(=O)COc1coc(CN2CCN(Cc3ccccc3)CC2)cc1=O,,inactive: -3.8%
C=CCn1c(=O)/c(=C/c2ccsc2)s/c1=C(\C#N)C(=O)NCCN1CCOCC1,"inconclusive [activator, single point]",
CC1CCN(c2ccccc2NC(=S)NC(=O)c2cccs2)CC1,active: 10 µM,
COc1ccc(NC(=O)/C(C#N)=C/C=C/c2ccco2)cc1,active: 14.6 µM,
COc1ccccc1/C=C/C=N/n1c(-c2cc(-c3ccccc3)n[nH]2)n[nH]c1=S,"inconclusive [activator, single point]",
O=C(COC(=O)c1ccccc1O)Nc1cccc(S(=O)(=O)N2CCCC2)c1,,inactive: 22.3%
O=C1/C(=C/c2ccc3c(c2)OCO3)CCC/C1=C\c1ccc2c(c1)OCO2,active: 14.6 µM,
CN(C)C(CNC(=O)C1CC(=O)N(Cc2ccccc2)C1)c1ccccc1 (stereo unspecified),,inactive: 8.02%
O=C1/C(=C\c2ccco2)CCC/C1=C\c1ccco1,active: 20.6 µM,
Nc1cc(=O)[nH]c(SCc2nnnn2-c2ccc(Cl)cc2)n1,"inconclusive [activator, partial curve, poor fit]",
COc1ccc(OC)c(CN2CCCC(C(=O)c3ccccc3SC)C2)c1 (stereo unspecified),"inconclusive [activator, single point]",
CCC(=O)c1ccc(OCC(=O)Nc2ccccc2N2CCOCC2)cc1,,inactive: -1.86%

SMILES,Potency,"activity, positive = re-replication"
O=C(CNC(=O)c1ccc(Cl)cc1Cl)OCc1cn2cc(Br)ccc2n1,,inactive: 1.48%
O=C(Nc1cc([N+](=O)[O-])ccc1Cl)C(Sc1ccccc1)c1ccccc1 (stereo unspecified),,inactive: -5.16%
CC(C)NC(=O)c1nc2c(nnn2Cc2cccc(Cl)c2)c(=O)[nH]1,"inconclusive [activator, single point]",
Cn1c(SCc2c(Cl)cccc2Cl)nnc1-c1ccc2nonc2c1,"inconclusive [activator, partial curve, poor fit]",
S=c1[nH]nc(-c2ccncc2)n1/N=C/c1cn(-c2ccccc2)nc1-c1ccccc1,"inconclusive [activator, full curve, poor fit]",
COC(=O)C1=NN(C(C)=O)C2(CC(=O)N(c3cccc(C)c3)C2=O)C1 (stereo unspecified),,inactive: 10.3%
CN(C)c1c2ccccc2nc2c(F)c(F)c(F)c(F)c12,"inconclusive [activator, single point]",
Cc1ccc(C)c(C(=O)CCC(=O)NCc2ccc(Cl)cc2)c1,"inconclusive [activator, single point]",
Cc1ccc(OCCn2cc(C(=S)N3CCCC3)c3ccccc32)cc1C,"inconclusive [activator, partial curve]",
Cc1cccc(Nc2cc(=O)[nH]c(=O)[nH]2)c1,"inconclusive [activator, full curve, poor fit]",
COc1ccc(-c2csc(NC(=S)NC(=O)c3ccccc3)n2)cc1Br,"inconclusive [activator, partial curve, poor fit]",
COc1ccc(C(=O)NC(C)c2csc(C)n2)cc1OC1CCN(C(C)=O)CC1 (stereo unspecified),,inactive: -0.196%
Cc1ccc([N+](=O)[O-])cc1NC(=O)Nc1cccc(F)c1,"inconclusive [activator, single point]",
Cc1cc(-c2ccc(Cl)cc2)c(C#N)c(N)n1,,inactive: -5.08%
CC(C)c1ccc(OCC(=O)NCc2n[nH]c(=O)c3ccccc23)cc1,"inconclusive [activator, single point]",
COc1ccc(CNC(=O)CN2C(=O)C(c3ccccc3)Oc3cccnc32)cc1 (stereo unspecified),"inconclusive [activator, single point]",
COc1ccccc1-c1oc2ccccc2c1C#CC1(O)CCCCC1,"inconclusive [activator, single point]",
CC(=O)Nc1ccc(S(=O)(=O)NCCC(=O)OCc2nc(N)nc(Nc3ccccc3C)n2)cc1,"inconclusive [activator, partial curve, poor fit]",
CCCCNC(=S)N/N=C/C1=CCC2CC1C2(C)C (stereo unspecified),"inconclusive [activator, single point]",
O=C(Cc1cc(=O)[nH][nH]1)N/N=C/c1c(F)cccc1Cl,,inactive: 1.19%
CCCCCC(=O)N(O)C1CC(=O)N(c2ccccc2)C1=O (stereo unspecified),"inconclusive [activator, single point]",
Cc1cc(N(C)C(=O)c2ccc3c(c2)S(=O)(=O)c2cc(Cl)ccc2C3=O)c(C(F)(F)F)o1,,inactive: 4.65%
Cc1nc(NC(=O)CN(C)S(=O)(=O)c2ccc(Br)cc2)sc1C,,inactive: -1.72%
O=C(Nc1ccc([N+](=O)[O-])cc1)Nc1ccon1,active: 5.8 µM,

SMILES,Potency,"activity, positive = re-replication"
COc1ccc(NC(=O)c2cc(-c3ccc(C)cc3O)n[nH]2)c(OC)c1,"inconclusive [activator, single point]",
COc1ccccc1/C=C/C=N\N1CCN(Cc2ccccc2Cl)CC1,"inconclusive [activator, single point]",
CCN1CCN(C(=O)Cn2nc(-c3ccc(Cl)cc3)ccc2=O)CC1,"inconclusive [activator, single point]",
O=C(CN1CCCCC1)Nc1nc(-c2ccc(Cl)cc2)cs1,"inconclusive [activator, partial curve]",
NC(=O)CC(NC(=O)c1ccccc1)c1ccc(N2CCC(Br)CC2)c([N+](=O)[O-])c1 (stereo unspecified),"inconclusive [activator, single point]",
O=[N+]([O-])c1cc(O)c2ncccc2c1,"inconclusive [activator, single point]",
CCCCn1c(NS(=O)(=O)c2ccc(C)cc2)c(S(=O)(=O)c2ccccc2)c2nc3ccccc3nc21,"inconclusive [activator, partial curve, poor fit]",
CCOC(=O)c1c(CC(C)C)csc1NC(=O)c1ccccc1C(=O)O,"inconclusive [activator, single point]",
Cc1ccc(C2C(C#N)=C(N)Oc3cc(N)ccc32)cc1 (stereo unspecified),"inconclusive [activator, single point]",
O=S(=O)(NCc1ccccc1)c1ccc(NC(=S)NCc2ccco2)cc1,,inactive: -1.82%
COc1ccc(N2CCN(C(CNC(=O)C(=O)NCc3cccs3)c3ccco3)CC2)cc1 (stereo unspecified),,inactive: 1.21%
COc1ccc(NC(=O)c2cc3c(CO)cnc(C)c3oc2=Nc2cccc(C)c2)c(OC)c1,"inconclusive [activator, full curve]",
O=C(CN1C(=O)c2cccnc2Oc2ccc(Cl)cc21)NC1CCCC1,,inactive: 14.5%
COc1nc(-c2ccccc2)ncc1S(=O)(=O)c1ccccc1,,inactive: -12.6%
CCN1CCCC1CNC(=O)CN(C)S(=O)(=O)c1ccc(Cl)cc1 (stereo unspecified),,inactive: 7.34%
O=C(NCCOC12CC3CC(CC(C3)C1)C2)c1cccc(Br)c1,"inconclusive [activator, single point]",
COc1ccc(/C=C/c2nnc(NC(=O)COc3cccc(C)c3)s2)cc1,"inconclusive [activator, single point]",
N#CCCN1CCN(C(=S)c2ccc(-c3cc(Cl)ccc3Cl)o2)CC1,,inactive: 7.62%
O=C(CCN1CCOCC1)NC1CCCN(Cc2ccccc2F)C1 (stereo unspecified),,inactive: 1.4%
COc1cc(/C=C2\Oc3ccc(C#Cc4ccc(O)cc4)cc3C2=O)cc(OC)c1,"inconclusive [activator, partial curve, poor fit]",
CCOC(=O)c1c(C)[nH]c(C(=O)N/N=C/c2cc([N+](=O)[O-])ccc2O)c1C,,inactive: -1.42%
O=C(Cc1ccccc1Cl)Nc1cccc(S(=O)(=O)N2CCCCCC2)c1,"inconclusive [activator, single point]",
OC1CC2CCC(C1)N2CCCN1c2ccccc2Sc2ccc(Cl)cc21 (stereo unspecified),"inconclusive [activator, single point]",
